Out of some 220,000 compounds screened, about 5,700 (2.6%) were called active. This list was built around the results that the source calls inconclusive (neither active nor inactive); the mix of calls is not that of the screen. Calls come from the whole dose curve; as a rule, active = well fitted inhibition curve with a large enough effect; inconclusive = small, poorly fitted or top-dose-only effect; inactive = no such curve, though single readings can be large or run the other way. Potencies of inconclusive entries are doubtful fits and often do not repeat.
The compounds below were run against Lysine-specific demethylase 5B (Homo sapiens) (UniProt Q9UGL1) (assay: Primary screen for KDM5B Histone Demethylases FDH-coupled qHTS). Conditions: FDH-coupled NADH fluorescence (FDH is formaldehyde dehydrogenase); activity change, negative = inhibition: at 57.7 µM (top of the series).
Chain of UniProt Q9UGL1 (Q9UGL1 whole entry, looked up): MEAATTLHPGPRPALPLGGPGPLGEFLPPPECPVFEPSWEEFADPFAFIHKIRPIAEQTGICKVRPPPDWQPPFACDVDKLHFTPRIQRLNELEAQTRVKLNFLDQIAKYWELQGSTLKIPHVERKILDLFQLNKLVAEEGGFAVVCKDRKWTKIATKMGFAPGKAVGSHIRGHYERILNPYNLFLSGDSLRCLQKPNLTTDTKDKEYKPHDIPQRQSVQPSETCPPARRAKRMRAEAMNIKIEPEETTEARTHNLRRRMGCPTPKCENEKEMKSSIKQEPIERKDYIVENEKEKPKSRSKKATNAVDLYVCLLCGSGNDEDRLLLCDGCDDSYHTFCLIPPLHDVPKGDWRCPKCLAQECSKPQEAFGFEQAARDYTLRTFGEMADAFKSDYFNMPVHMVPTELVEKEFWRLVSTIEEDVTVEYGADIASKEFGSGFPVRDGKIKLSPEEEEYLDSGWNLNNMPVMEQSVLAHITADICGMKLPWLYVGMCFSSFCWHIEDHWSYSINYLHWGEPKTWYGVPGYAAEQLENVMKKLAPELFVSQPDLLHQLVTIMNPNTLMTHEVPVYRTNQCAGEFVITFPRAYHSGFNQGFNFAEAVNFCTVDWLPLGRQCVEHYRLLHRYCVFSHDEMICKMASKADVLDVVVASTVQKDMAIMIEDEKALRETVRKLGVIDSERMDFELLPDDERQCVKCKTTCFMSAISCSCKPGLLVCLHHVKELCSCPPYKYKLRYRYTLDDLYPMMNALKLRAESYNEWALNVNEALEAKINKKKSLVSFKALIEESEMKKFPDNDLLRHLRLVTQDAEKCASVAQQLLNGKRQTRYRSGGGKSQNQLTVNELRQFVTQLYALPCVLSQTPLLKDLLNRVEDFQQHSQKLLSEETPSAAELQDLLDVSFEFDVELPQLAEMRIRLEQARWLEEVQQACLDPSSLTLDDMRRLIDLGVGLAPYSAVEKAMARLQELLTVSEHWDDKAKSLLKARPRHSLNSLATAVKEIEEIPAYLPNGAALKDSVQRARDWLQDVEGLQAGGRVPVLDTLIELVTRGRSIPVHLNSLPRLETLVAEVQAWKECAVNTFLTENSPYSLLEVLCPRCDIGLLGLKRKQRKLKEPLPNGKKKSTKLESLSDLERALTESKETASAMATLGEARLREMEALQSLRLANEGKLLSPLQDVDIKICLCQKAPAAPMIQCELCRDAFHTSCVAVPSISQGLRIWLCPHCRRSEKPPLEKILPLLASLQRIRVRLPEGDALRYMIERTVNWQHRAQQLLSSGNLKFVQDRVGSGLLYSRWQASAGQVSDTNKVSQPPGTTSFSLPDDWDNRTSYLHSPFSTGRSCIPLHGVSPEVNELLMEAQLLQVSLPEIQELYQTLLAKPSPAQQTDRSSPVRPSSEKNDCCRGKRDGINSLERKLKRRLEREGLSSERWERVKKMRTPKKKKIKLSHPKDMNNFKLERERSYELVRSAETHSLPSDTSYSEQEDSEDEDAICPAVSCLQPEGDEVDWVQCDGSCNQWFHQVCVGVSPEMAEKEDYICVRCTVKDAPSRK
How it was run: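 qHTS format, multiple compound concentrations. Buffer 50 mM HEPES pH 7.5/0.01% Tween-20; 200 nM KDM5BΔAP final; 10 min compound preincubation; substrate-mix levels 12.5 µM peptide, 25 µM α-KG, 0.25 mM NAD⁺; 30 min RT; ΔRFU.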
With `CCCCC(=O)N/N=C/c1c(O)n(-c2cccc3ccccc23)c(=O)[nH]c1=O` the Potency was inconclusive: 17.8 µM [inhibitor, partial curve, poor fit]. For `COc1ccccc1-n1cc(C2=CCN(CCOCCO)CC2)cn1`, the Potency was inconclusive: 12.6 µM [inhibitor, partial curve, poor fit]. `O=c1ccc(-c2cccs2)c2n1C[C@H]1C[C@@H]2CN(S(=O)(=O)c2ccccc2)C1` was tested, and the Potency was inconclusive: 28.2 µM [inhibitor, single point]. In the case of `O=C(Nc1ccc2n(c1=O)C[C@H]1C[C@@H]2CN(C(=O)NC2CCCCC2)C1)c1ccccn1`, the “activity change, negative = inhibition” value was inactive: -26%. In the case of `CS(=O)(=O)N1C[C@H]2CCN(Cc3ccc[nH]3)C[C@H]21`, the Potency was active: 14.1 µM. For `CCC1(N2CCN(C(=O)Cc3ccc(Cl)cc3)CC2)CCN(S(C)(=O)=O)C1` (stereo not drawn), the “activity change, negative = inhibition” value was inactive: -22.6%. `CN1CCN(C(=O)Cc2c[nH]c3ncc(-c4ccoc4)cc23)CC1` was tested, and the Potency was inconclusive: 28.2 µM [inhibitor, single point]. In the case of `COc1ccc(F)c(CNCCc2c(C)[nH]c3ccc(OC)cc23)c1`, the Potency was inconclusive: 39.8 µM [inhibitor, single point]. For `CCn1ccc(C(=O)N2[C@H]3CC[C@@H]2c2cnc(C)nc2C3)n1`, the “activity change, negative = inhibition” value was inactive: 18.3%. For `COc1ccc(OC)c(-c2cnc3[nH]cc(CC(=O)N4CCN(C)CC4)c3c2)c1`, the “activity change, negative = inhibition” value was inactive: -14.1% [at 86.2 µM]. For `Cc1cc(C)nc(N2CC3CCC(C2)N3CC(F)(F)F)c1`, the Potency was inconclusive: 89.1 µM [inhibitor, partial curve]. `Nc1cncc(-c2ccc(CN3CCCC3)cn2)c1` was tested, and the Potency was inconclusive: 7.94 µM [inhibitor, partial curve, poor fit]. For `O=C(c1ccc(F)cc1)N1C[C@@H]2C[C@H](C1)c1c(/C=C/c3ccc(Cl)cc3)ccc(=O)n1C2`, the Potency was active: 31.6 µM. `C/C(=N\NC(=O)c1ccccc1O)c1c(O)n(Cc2ccccc2)c(=O)[nH]c1=O` was tested, and the Potency was inconclusive: 20 µM [inhibitor, partial curve, poor fit]. `O=C(O)C1CN(Cc2ncc[nH]2)CCN(C(=O)Cc2cccs2)C1` (stereo not drawn) was tested, and the Potency was inconclusive: 15.8 µM [inhibitor, single point]. `COc1cc(CNC2CN3CCC2CC3)cc(Cl)c1OCc1ccccc1Cl` (stereo not drawn) was tested, and the “activity change, negative = inhibition” value was inactive: -12.7%. For `O=C(/C=C/c1c[nH]c2ccccc12)c1c(O)n(CCc2ccccc2)c(=O)[nH]c1=O`, the Potency was inconclusive: 35.5 µM [inhibitor, single point]. In the case of `c1cc(CC2CN3CCCC3CN2)cs1` (stereo not drawn), the “activity change, negative = inhibition” value was inactive: -26.4% [at 230 µM]. With `O=C(Nc1ccc2n(c1=O)C[C@H]1C[C@@H]2CN(C(=O)c2ccccn2)C1)c1cccs1` the “activity change, negative = inhibition” value was inactive: -10.8% [at 86.2 µM]. `CN(Cc1ccccc1)C[C@H]1CN2CC[C@H]1C[C@@H]2CNC(=O)c1ccccc1` was tested, and the Potency was inconclusive: 56.2 µM [inhibitor, single point]. For `CCc1cnc(N2CCC3(CC2)C(=O)Nc2cc(OCC4CC4)c(OC)cc23)nc1`, the Potency was inconclusive: 31.6 µM [inhibitor, single point]. With `C#C[C@H]1CN2CC[C@H]1C[C@@H]2CNC(=O)c1ccc(F)c(Cl)c1` the “activity change, negative = inhibition” value was inactive: -10.4% [at 86.2 µM]. For `COc1cccc(N2CC3CCC(C2)N3CC(F)(F)F)n1`, the Potency was active: 100 µM. `CCC(=O)N1CC(=O)Nc2ccc(C)cc2C1c1ccc(F)cc1` (stereo not drawn) was tested, and the Potency was inconclusive: 3.16 µM [inhibitor, partial curve, poor fit]. `COc1cc2c(cc1OCc1ccncc1)NC(=O)C21CCN(Cc2cccc(O)c2)CC1` was tested, and the Potency was inconclusive: 25.1 µM [inhibitor, partial curve]. In the case of `Cc1cc(/C=C2\C(=O)NC(=O)N(c3ccc(Cl)cc3)C2=O)c(C)n1-c1cccc(C(=O)O)c1`, the Potency was inconclusive: 20 µM [inhibitor, partial curve, poor fit]. For `O=C(c1ccccc1)N1C[C@@H]2C[C@H](C1)c1c(-c3ccc(Cl)cc3)ccc(=O)n1C2`, the Potency was inconclusive: 31.6 µM [inhibitor, partial curve]. In the case of `O=C(O)C1=NOC2CN(CC3CCCCC3)CC12` (stereo not drawn), the “activity change, negative = inhibition” value was inactive: -20.6% [at 149 µM]. In the case of `O=C1Nc2ccccc2C12CCN(Cc1cncs1)CC2`, the “activity change, negative = inhibition” value was inactive: 1.94% [at 149 µM]. `NC(=O)c1ccc(-c2cccc3c2CCNC3)s1` was tested, and the Potency was inconclusive: 39.8 µM [inhibitor, partial curve, poor fit]. In the case of `COc1cc2c(cc1OCC1CC1)NC(=O)C21CCN(Cc2nccs2)CC1`, the Potency was inconclusive: 20 µM [inhibitor, partial curve]. In the case of `NCCc1c[nH]c2ccc(OCc3ccccc3)cc12`, the Potency was inconclusive: 20 µM [inhibitor, partial curve, poor fit]. `Cc1ncc2c(c1CNCC1(O)CNCCOC1)CCNC2` (stereo not drawn) was tested, and the Potency was active: 28.2 µM. For `Clc1ccc(N2CC2c2ccncc2)cc1` (stereo not drawn), the Potency was inconclusive: 10 µM [inhibitor, partial curve, poor fit]. `CCNCCNc1ccc([N+](=O)[O-])c2cccnc12` was tested, and the Potency was inconclusive: 14.1 µM [inhibitor, single point]. `CC(C)NC(=O)N1C[C@@H]2C[C@H](C1)c1ccc(-c3cccc(C(F)(F)F)c3)c(=O)n1C2` was tested, and the “activity change, negative = inhibition” value was inactive: -5190% [at 86.2 µM]. In the case of `Cc1nc(-c2ccco2)cc([C@H]2CN3CC[C@H]2C[C@@H]3CNC(=O)Cc2cccs2)n1`, the Potency was active: 17.8 µM. `C#C[C@H]1CN2CC[C@H]1C[C@@H]2CNC(=O)c1ccc(C(F)(F)F)cc1` was tested, and the Potency was inconclusive: 39.8 µM [inhibitor, partial curve, poor fit]. In the case of `CC1CN2CCCCC2CN1` (stereo not drawn), the Potency was inconclusive: 251 µM [inhibitor, partial curve, poor fit]. With `COCC(=O)NC[C@H]1C[C@@H]2CCN1C[C@@H]2c1cc(-c2ccccc2)nc(C)n1` the “activity change, negative = inhibition” value was inactive: -25.3% [at 86.2 µM]. With `COC(=O)c1cccc(N=Cc2c(O)n(Cc3ccc(F)cc3)c(=O)[nH]c2=O)c1` the Potency was inconclusive: 20 µM [inhibitor, partial curve, poor fit]. `Cn1c(O)c(C(=Nc2ccccc2)SCc2ccccc2Cl)c(=O)n(C)c1=O` was tested, and the Potency was inconclusive: 28.2 µM [inhibitor, partial curve, poor fit]. For `CC1=NOC2(CCN(Cc3cncs3)C2)C1` (stereo not drawn), the Potency was inconclusive: 39.8 µM [inhibitor, partial curve, poor fit].

Source: PubChem BioAssay AID1347165 (National Center for Advancing Translational Sciences (NCATS), 2019)
Note: nearly all actives have a fitted effect of over 70% in size.
Potency is the fitted concentration of half-maximal effect; tags give direction and shape of the fitted curve.
Throughout, for activity change, negative = inhibition: 0% is about no effect.
